± gives the standard error. Variants at the floor of the assay are shown more often than the library holds them.
B1: glmS ribozyme (parent)
chain: AUAAAAGCGCCAGAACUACAGAAAUGUAGUUGACGAGGAGGAGGUUUAUCGAAUUUUCGGCGGAUGCCUCCAAA

Tests used:
Details in all cases: with glucosamine-6-phosphate
glucosamine-6-phosphate [1] = variants of: B1; assay: self-cleavage kobs at 640 uM GlcN6P; higher = faster cleavage; RNA array
Outline: (§1)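 Tiles bearing barcoded ribozyme variants, transcribed in situ by E. coli RNA polymerase on sequenced MiSeq chips, were imaged over ~14 h at 37 °C using a hybridised Cy3 probe. Glucosamine-6-phosphate was supplied at 40 μM to 10 mM in HEPES/KCl/Mg(OAc)2 buffer. kobs came from one- or two-exponential decay fits to normalised per-tile medians, and weighted Michaelis–Menten fits then provided kcat and KM.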

glucosamine-6-phosphate [2] = variants of: B1; assay: self-cleavage kobs at 2500 uM GlcN6P; higher = faster cleavage; RNA array
Outline: as §1

glucosamine-6-phosphate [3] = variants of: B1; assay: self-cleavage kobs at 160 uM GlcN6P; higher = faster cleavage; RNA array
Outline: as §1

glucosamine-6-phosphate [4] = variants of: B1; assay: self-cleavage kobs at 10000 uM GlcN6P; higher = faster cleavage; RNA array
Outline: as §1

| Variant | self-cleavage kobs at 640 uM GlcN6P (glucosamine-6-phosphate [1]) [s⁻¹] | self-cleavage kobs at 2500 uM GlcN6P (glucosamine-6-phosphate [2]) [s⁻¹] | self-cleavage kobs at 160 uM GlcN6P (glucosamine-6-phosphate [3]) [s⁻¹] | self-cleavage kobs at 10000 uM GlcN6P (glucosamine-6-phosphate [4]) [s⁻¹] |
| --- | --- | --- | --- | --- |
| A6C C11A A33U A36U | < 1e-05 | < 1e-05 | – | – |
| A6C C58G A64G | < 1e-05 | – | – | – |
| A6C G7C A36C U55C C58A | < 1e-05 | – | – | – |
| A6C G7U G43U | < 1e-05 | < 1e-05 | – | – |
| A6C G9C C11G U31C G43C C70A | < 1e-05 | < 1e-05 | – | – |
| A6C G9C U55C | < 1e-05 | < 1e-05 | < 1e-05 | – |
| A6C G35U G40C G59A | < 1e-05 | – | – | – |
| A6C G38C U47C | < 1e-05 | < 1e-05 | – | – |
| A6G A14G C67G C71A | < 1e-05 | – | – | – |
| A6G A14G U49A | < 1e-05 | < 1e-05 | < 1e-05 | – |
| A6G A14U A53U U56C | < 1e-05 | – | – | – |
| A6G A14U U55C C58G C68A | < 1e-05 | – | < 1e-05 | – |
| A6G A15G G32C | < 1e-05 | < 1e-05 | – | – |
| A6G A33C C34A G38A G43C | < 1e-05 | – | – | – |
| A6G A33U C68A | < 1e-05 | < 1e-05 | < 1e-05 | < 1e-05 |
| A6G A53G C61A | < 1e-05 | < 1e-05 | – | – |
| A6G G7U G35U | < 1e-05 | – | – | – |
| A6G G9U A64G | < 1e-05 | – | – | – |
| A6G G29A U30G G40A U54C | < 1e-05 | – | – | – |
| A6G G32A G38A U46C G51A | < 1e-05 | – | – | – |
| A6G G40U G41U | < 1e-05 | < 1e-05 | – | – |
| A6G G59C C61G | < 1e-05 | < 1e-05 | – | – |

| Variant | self-cleavage kobs at 640 uM GlcN6P (glucosamine-6-phosphate [1]) [s⁻¹] | self-cleavage kobs at 2500 uM GlcN6P (glucosamine-6-phosphate [2]) [s⁻¹] | self-cleavage kobs at 160 uM GlcN6P (glucosamine-6-phosphate [3]) [s⁻¹] | self-cleavage kobs at 10000 uM GlcN6P (glucosamine-6-phosphate [4]) [s⁻¹] |
| --- | --- | --- | --- | --- |
| A6G U46A U54C | < 1e-05 | – | < 1e-05 | – |
| A6G U55G | 0.000133 ± 3.4e-05 | 0.000299 ± 5.2e-05 | – | 0.000473 ± 7.8e-05 |
| A6U A12G G59C C67A | < 1e-05 | – | – | – |
| A6U A14C G51A | < 1e-05 | – | < 1e-05 | – |
| A6U A14C U45C C70U | < 1e-05 | < 1e-05 | < 1e-05 | – |
| A6U A15U U46G | < 1e-05 | < 1e-05 | – | – |
| A6U A33C G41A G63C | < 1e-05 | < 1e-05 | < 1e-05 | – |
| A6U C8U G41C | < 1e-05 | < 1e-05 | < 1e-05 | – |
| A6U C10A G51U | < 1e-05 | < 1e-05 | – | – |
| A6U C10G A39U G60C C68G | < 1e-05 | – | – | – |
| A6U C34A G63C | < 1e-05 | < 1e-05 | < 1e-05 | – |
| A6U C61U G63U | < 1e-05 | – | – | – |
| A6U G7C U45G | < 1e-05 | < 1e-05 | – | – |
| A6U U30C A53U U56C | < 1e-05 | < 1e-05 | < 1e-05 | – |
| A6U U31G U56C C61G | < 1e-05 | < 1e-05 | < 1e-05 | – |
| A6U U46A | < 1e-05 | – | < 1e-05 | – |
| G7A A64C | < 1e-05 | – | < 1e-05 | < 1e-05 |
| G7A C11A A14C | < 1e-05 | < 1e-05 | – | < 1e-05 |
| G7A C11A A39G U45C | < 1e-05 | – | – | – |
| G7A C16G A48U G60C C70A | < 1e-05 | < 1e-05 | – | – |
| G7A C61A C68U | < 1e-05 | – | – | – |
| G7A G32U A39U U56A | < 1e-05 | < 1e-05 | – | – |

| Variant | self-cleavage kobs at 640 uM GlcN6P (glucosamine-6-phosphate [1]) [s⁻¹] | self-cleavage kobs at 2500 uM GlcN6P (glucosamine-6-phosphate [2]) [s⁻¹] | self-cleavage kobs at 160 uM GlcN6P (glucosamine-6-phosphate [3]) [s⁻¹] | self-cleavage kobs at 10000 uM GlcN6P (glucosamine-6-phosphate [4]) [s⁻¹] |
| --- | --- | --- | --- | --- |
| G7A U31G G37A G43C | < 1e-05 | – | – | – |
| G7C A15U G29U G51U | < 1e-05 | < 1e-05 | < 1e-05 | – |
| G7C C8A C71U | < 1e-05 | – | – | – |
| G7C C11U G59C | < 1e-05 | < 1e-05 | < 1e-05 | < 1e-05 |
| G7C G51A G63C | < 1e-05 | – | – | – |
| G7C U54G | < 1e-05 | – | < 1e-05 | – |
| G7U A12G A48U G63U | < 1e-05 | – | – | – |
| G7U A14U G44U | < 1e-05 | – | – | – |
| G7U A48G | < 1e-05 | – | – | – |
| G7U G9U U31A G37A A52C C67U U69C | < 1e-05 | – | – | – |
| G7U G35U A53G | < 1e-05 | – | – | – |
| G7U U30A G59A | < 1e-05 | < 1e-05 | – | – |
| G7U U56A G59U | < 1e-05 | – | – | – |
| G7U U65G | < 1e-05 | < 1e-05 | – | < 1e-05 |
| C8A A33G G44U C50A G51U | < 1e-05 | < 1e-05 | – | – |
| C8A A42U U56C | < 1e-05 | – | – | – |
| C8A C10A G29C U31G G37A U46C | < 1e-05 | < 1e-05 | < 1e-05 | – |
| C8A C16A G32C A42G | < 1e-05 | – | – | – |
| C8A C16U G59C | < 1e-05 | < 1e-05 | – | – |
| C8A C34U G40A A52U | < 1e-05 | < 1e-05 | < 1e-05 | < 1e-05 |
